Test results reported in PubChem BioAssay AID624418 (National Center for Advancing Translational Sciences (NCATS), 2012).
Hit rate of the full screen: of about 410,000 compounds, about 530 (0.13%) were called active. The shares of active, inactive and inconclusive entries below differ from those in the screen. Calls come from the whole dose curve; as a rule, active = well fitted inhibition curve with a large enough effect; inconclusive = small, poorly fitted or top-dose-only effect, or another doubt; inactive = no such curve, though single readings can be large or run the other way. Where the call is inconclusive, the potency comes from a doubtful curve fit.

Experiment: qHTS of GLP-1 Receptor Inverse Agonists: Cytotox Screen
Conditions: HEK293 cAMP-luciferase reporter cells, luminescence, 24 h; activity change, negative = inhibition: at 38.3 µM (top of the series) unless noted
Method in brief: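 1536-well qHTS counterscreen of the MLSMR; 200 cells/uL, 12 h pre-incubation, 23 nL cpd, 24 h at 37 deg C 5% CO2, luciferase detection reagent, 12 min RT, luminescence. Inhibition = undesired.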
% is set by controls: 0 for no effect and ±100 for the full control effect; potency is the fitted concentration of half-maximal effect.

Compound | activity change, negative = inhibition | Potency
CCCCNC1=CC(=O)C(=O)c2ccccc21 | inactive: -10.9% | –
O=[N+]([O-])c1ccc(/C=N/NC(=S)Nc2ccc(Cl)cc2Cl)s1 | – | inconclusive: 10 µM [inhibitor, partial curve, poor fit]
COCCCNCCOCCOc1ccc(Cl)cc1C(C)(C)C | – | inconclusive: 14.1 µM [inhibitor, single point]
COc1ccc(S(=O)(=O)c2c(C)c(NS(=O)(=O)c3ccccc3)cc(C)c2O)cc1 | – | inactive
Cn1cnc([N+](=O)[O-])c1Sc1nc(N)nc2c1ncn2C1OC(CO)C(O)C1O (stereo not drawn) | – | inconclusive: 5.62 µM [inhibitor, full curve, poor fit]
CN=c1sc2c(n1C)C(=O)c1ccccc1C2=O | – | inconclusive: 8.91 µM [inhibitor, partial curve, poor fit]
CC(C)CNS(=O)(=O)c1ccc(CCC(=O)NCCc2ccccc2)cc1 | – | inconclusive: 28.2 µM [inhibitor, single point]
CCc1cccc(NC(=O)C2CCCN(S(=O)(=O)c3cccs3)C2)c1 (stereo not drawn) | – | inactive
N=c1c2c(ncn1Cc1ccco1)Oc1c(ccc3ccccc13)C2c1ccccc1 (stereo not drawn) | – | inconclusive: 7.08 µM [inhibitor, partial curve, poor fit]
COc1ccc(-c2nc3n(c2C)Cc2ccccc2-3)cc1 | – | inconclusive: 11.2 µM [inhibitor, partial curve, poor fit]
COc1ccc(/C=N/NC(=O)c2cccc(COCC(F)(F)C(F)F)c2)cc1 | – | inconclusive: 12.6 µM [inhibitor, single point]
C/C(=N\N=C(N)N)c1ccc(Cl)c(Cl)c1 | – | inconclusive: 22.4 µM [inhibitor, single point]
Clc1ccc(CN2C3=NCCN3c3ccccc32)cc1 | – | inconclusive: 10 µM [inhibitor, partial curve, poor fit]
c1ccc(N2CCN(Cc3cnc(N4CCOCC4)s3)CC2)cc1 | – | inconclusive: 22.4 µM [inhibitor, single point]
CN(C)S(=O)(=O)N1CCN(CC(O)COc2ccc3cc(Br)ccc3c2)CC1 (stereo not drawn) | – | inconclusive: 7.94 µM [inhibitor, partial curve]
O=C(N/N=C/c1cn(-c2ccccc2)nc1-c1cccs1)c1ccncc1 | – | inconclusive: 7.94 µM [inhibitor, partial curve, poor fit]
CC(=O)c1ccc(C(=O)N(Cc2cccnc2)c2nc3c(C)c(C)ccc3s2)cc1 | inactive: -12.8% | –
C=CCN(CC=C)C(=S)NC(=O)c1ccc(C)c(Br)c1 | – | inconclusive: 1.41 µM [inhibitor, full curve, poor fit]
CC12CCC=CC1=C(C=O)C1C2CCC2(C)C(O)CCC12 (stereo not drawn) | – | inconclusive: 3.98 µM [inhibitor, partial curve, poor fit]
Cc1cc(C)c(S(=O)(=O)N2CCCCC2CCNC(=O)C(=O)NCc2ccco2)c(C)c1 (stereo not drawn) | – | inconclusive: 10 µM [inhibitor, single point]
Cc1cc(C)cc(NC(=O)CCc2c(C)nc3c(c2C)c(=O)n(C)c(=O)n3C)c1 | inactive: -2.73% | –
Cc1nc2ccc(S(=O)(=O)NC(C(=O)N3CCN(c4cccc(Cl)c4)CC3)C(C)C)cc2s1 (stereo not drawn) | inactive: -5.57% | –
Cc1ccc(-c2onc(C)c2C)cc1S(=O)(=O)Nc1cccc(Cl)c1C | – | inconclusive: 7.94 µM [inhibitor, partial curve, poor fit]

Compound | activity change, negative = inhibition | Potency
Cc1c(C(=O)N2CCN(CCc3ccccc3)CC2)oc2ccccc12 | inactive: -18% | –
Cc1ccc(C(=O)N2C(=O)c3cccc(N)c3C2=O)o1 | – | inconclusive: 1.58 µM [inhibitor, partial curve, poor fit]
O=C(/C=C/[C@H]1O[C@@H](n2ccc(=O)[nH]c2=O)[C@H](O)[C@@H]1O)NCc1ccc2c(c1)OCO2 | inactive: 4.82% | –
CCOC(=O)[C@]12CCCC=C1N(Cc1ccc3c(c1)OCO3)C(=O)[C@H](CC(=O)N1CCN(C(=O)C3CC3)CC1)C2 | inactive: -0.382% | –
C=CCNC(=S)N1CCN(c2ccc([N+](=O)[O-])cc2)CC1 | – | inconclusive: 7.94 µM [inhibitor, single point]
COc1ccc(OC)c(CNc2ncnc3c2nc2n3CCCC2)c1 | inactive: -0.707% | –
CN(C)CCNS(=O)(=O)c1ccc(N2CCN(c3ccc(F)cc3)CC2)c([N+](=O)[O-])c1 | – | inconclusive: 11.2 µM [inhibitor, partial curve, poor fit]
NC1=NC[C@H](c2ccccc2)N1CCc1cc(C(F)(F)F)cc(C(F)(F)F)c1 | – | inconclusive: 31.6 µM [inhibitor, single point]
CCCn1c(=N)n(CC(O)c2ccc(C)cc2)c2ccccc21 (stereo not drawn) | – | inconclusive: 11.2 µM [inhibitor, partial curve, poor fit]
CC(C)c1ccc(Nc2nc(N3CCOCC3)nc(N3CCOCC3)n2)cc1 | inactive: 1.78% | –
NC1=NC2=C(CCCC2)C2(CCCCC2)S1 | – | inconclusive: 1.78 µM [inhibitor, full curve, poor fit]
C/C(=N\NC(=O)c1ccc2c(c1)OCO2)c1cccnc1 | inactive: -0.933% | –
COc1ccc(C)c2sc(N(CCCN(C)C)C(=O)c3ccc(S(=O)(=O)N4CCc5ccccc5C4)cc3)nc12 | – | inconclusive: 28.2 µM [inhibitor, single point]
O=C(CCCn1c(=O)c2sccc2n(Cc2ccc(Cl)cc2)c1=O)NCc1ccc2c(c1)OCO2 | inactive: 1.76% | –
CN(C)c1ccc(-c2[nH][nH]c(=O)c2NC(=O)c2ccc3ccccc3n2)cc1 | inactive: -14.7% | –
O=C(N/N=C/c1cn(-c2ccccc2)nc1-c1cccnc1)c1ccc(F)cc1 | inactive: -19.5% | –
Cc1nc(SCc2nc3ccccc3[nH]2)c2oc3ccccc3c2n1 | inactive: -17.4% | –
Cc1csc(N/N=C\c2cccnc2)n1 | – | inconclusive: 11.2 µM [inhibitor, partial curve]
CC1CN(C(=S)SCC(=O)c2ccc([N+](=O)[O-])cc2)CC(C)O1 (stereo not drawn) | – | inconclusive: 28.2 µM [inhibitor, single point]
O=C(NC(=S)NC1C2CC3CC(C2)CC1C3)c1ccccc1 (stereo not drawn) | – | inconclusive: 28.2 µM [inhibitor, single point]
CC(C)Oc1ccccc1C1CC(=O)Nc2cc3c(cc21)OCCO3 (stereo not drawn) | – | inconclusive: 1 µM [inhibitor, full curve, poor fit]
Cc1ccc(C(=O)/C=C/c2cc(C#N)n(C)c2C)cc1 | – | inconclusive: 0.501 µM [inhibitor, full curve, poor fit]
O=[N+]([O-])c1ccc(Nc2ccccc2O)c([N+](=O)[O-])c1 | – | inconclusive: 20 µM [inhibitor, single point]

Compound | activity change, negative = inhibition | Potency
CCOC(=O)CCCN1C(=O)CCn2nc(-c3cn(C)c4ccccc34)cc21 | inactive: -7.21% | –
CCOC(=O)C1(CCOc2ccccc2)CCN(Cc2cc(OC)ccc2OC)CC1 | – | inconclusive: 28.2 µM [inhibitor, single point]
CC1(c2nnc(-c3cccc(Cl)c3)o2)CC(c2ccc(Cl)cc2)=NO1 (stereo not drawn) | inactive: 3.65% | –
OCC1(Cc2ccc(F)cc2)CCCN(Cc2ccc(F)cc2Cl)C1 (stereo not drawn) | – | inconclusive: 28.2 µM [inhibitor, single point]
O=C(COc1ccc2oc(-c3ccccc3)cc(=O)c2c1)NCc1ccco1 | inactive: -20.5% | –
CC1(C)Oc2ccc(C(=O)Nc3ccccc3F)cc2N(CC(=O)N2CCOCC2)C1=O | inactive: 3.95% | –
N/C(=N\OC(=O)c1ccc(Cl)cc1)c1ccccn1 | – | inconclusive: 22.4 µM [inhibitor, single point]
O=C(CSc1nc(-c2ccccc2)cc(C(F)(F)F)n1)NCc1ccco1 | – | inconclusive: 28.2 µM [inhibitor, single point]
O=C(NC(c1ccc(F)cc1)c1cnccn1)C1CCN(CCOc2ccc(Cl)cc2Cl)CC1 (stereo not drawn) | – | inconclusive: 28.2 µM [inhibitor, single point]
COc1cc(C2C(C#N)=C(N)N(c3sc4c(c3C#N)CCCC4)C3=C2C(=O)CC(C)(C)C3)cc(OC)c1OC (stereo not drawn) | inactive: -10.6% | –
S=C(Nc1cccc(Br)c1)c1ccccc1 | inactive: -5.51% | –
COC(=O)Cc1c(C(=O)OC)nnn1-c1cccc(C(F)(F)F)c1 | – | inconclusive: 11.2 µM [inhibitor, single point]
CC(C)C(=O)NC(c1cccc([N+](=O)[O-])c1)c1ccc2cccnc2c1O (stereo not drawn) | – | active: 2.51 µM
COc1ccc(N=c2cc(-c3ccc(OC)cc3)oc3ccccc23)cc1 | – | inconclusive: 28.2 µM [inhibitor, single point]
O=C(NC1CCCCC1)c1cc(-c2ccc(F)cc2)on1 | inactive: 10.8% | –
CCOC(=O)C1=C(C)N(c2ccccc2)C(=O)/C1=C\c1ccc(O)c(OC)c1 | – | inconclusive: 31.6 µM [inhibitor, single point]
CCCCN(C)C(=O)c1ccc2c(c1)N(Cc1ccc(F)cc1)C(=O)c1ccccc1S2(=O)=O | – | inconclusive: 6.31 µM [inhibitor, partial curve]
CC(C)(C)OC(=O)NCc1ccc(CNC(=O)c2[nH]cnc2C(=O)NCC(=O)OCc2ccccc2)cc1 | inactive: 1.54% | –
OC(CNCCc1ccccc1)COc1ccc(OCC(O)CNCCc2ccccc2)cc1 (stereo not drawn) | – | inconclusive: 28.2 µM [inhibitor, single point]
COc1ccc(C2c3c(ncn(CCCO)c3=N)Oc3ccc4ccccc4c32)cc1 (stereo not drawn) | – | inconclusive: 31.6 µM [inhibitor, single point]
COc1ccc(C2CC(c3ccc4ccccc4c3)=NN2C(=O)CSc2ncccn2)cc1 (stereo not drawn) | inactive: -18% | –
CCCCCCCCCCCCCCCCn1cc[n+](C)c1 | – | inconclusive: 10 µM [inhibitor, partial curve, poor fit]
